# In all, about 33,000 sequences were measured (“E-score (-0.5 to 0.5)”: median about -0.053, highest 2% from about 0.37 on). This is one part of the list.
# Biological target: Hap1 (UniProt P0CE41)
# Test: PBM E-score (8-mer binding enrichment) (E-score (-0.5 to 0.5)); higher = stronger / more preferred TF binding; most listed sequences are background and not binding sites
# Conditions: protein concentration: 200 nM; construct: GST-DNA-binding domain
# Procedure, shortened: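 E-scores (a modified Wilcoxon-Mann-Whitney statistic) were assigned by the Universal PBM Analysis Suite to every ungapped eight-base word pooled with its reverse complement. The input came from universal all-10-mer Agilent arrays made double-stranded by primer extension and probed with GST-tagged yeast transcription factors at about 100-200 nM. Fluorescent anti-GST detected bound protein, and masliner normalised the scans.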
# UniProt P0CE41, sequence (P0CE41 whole entry): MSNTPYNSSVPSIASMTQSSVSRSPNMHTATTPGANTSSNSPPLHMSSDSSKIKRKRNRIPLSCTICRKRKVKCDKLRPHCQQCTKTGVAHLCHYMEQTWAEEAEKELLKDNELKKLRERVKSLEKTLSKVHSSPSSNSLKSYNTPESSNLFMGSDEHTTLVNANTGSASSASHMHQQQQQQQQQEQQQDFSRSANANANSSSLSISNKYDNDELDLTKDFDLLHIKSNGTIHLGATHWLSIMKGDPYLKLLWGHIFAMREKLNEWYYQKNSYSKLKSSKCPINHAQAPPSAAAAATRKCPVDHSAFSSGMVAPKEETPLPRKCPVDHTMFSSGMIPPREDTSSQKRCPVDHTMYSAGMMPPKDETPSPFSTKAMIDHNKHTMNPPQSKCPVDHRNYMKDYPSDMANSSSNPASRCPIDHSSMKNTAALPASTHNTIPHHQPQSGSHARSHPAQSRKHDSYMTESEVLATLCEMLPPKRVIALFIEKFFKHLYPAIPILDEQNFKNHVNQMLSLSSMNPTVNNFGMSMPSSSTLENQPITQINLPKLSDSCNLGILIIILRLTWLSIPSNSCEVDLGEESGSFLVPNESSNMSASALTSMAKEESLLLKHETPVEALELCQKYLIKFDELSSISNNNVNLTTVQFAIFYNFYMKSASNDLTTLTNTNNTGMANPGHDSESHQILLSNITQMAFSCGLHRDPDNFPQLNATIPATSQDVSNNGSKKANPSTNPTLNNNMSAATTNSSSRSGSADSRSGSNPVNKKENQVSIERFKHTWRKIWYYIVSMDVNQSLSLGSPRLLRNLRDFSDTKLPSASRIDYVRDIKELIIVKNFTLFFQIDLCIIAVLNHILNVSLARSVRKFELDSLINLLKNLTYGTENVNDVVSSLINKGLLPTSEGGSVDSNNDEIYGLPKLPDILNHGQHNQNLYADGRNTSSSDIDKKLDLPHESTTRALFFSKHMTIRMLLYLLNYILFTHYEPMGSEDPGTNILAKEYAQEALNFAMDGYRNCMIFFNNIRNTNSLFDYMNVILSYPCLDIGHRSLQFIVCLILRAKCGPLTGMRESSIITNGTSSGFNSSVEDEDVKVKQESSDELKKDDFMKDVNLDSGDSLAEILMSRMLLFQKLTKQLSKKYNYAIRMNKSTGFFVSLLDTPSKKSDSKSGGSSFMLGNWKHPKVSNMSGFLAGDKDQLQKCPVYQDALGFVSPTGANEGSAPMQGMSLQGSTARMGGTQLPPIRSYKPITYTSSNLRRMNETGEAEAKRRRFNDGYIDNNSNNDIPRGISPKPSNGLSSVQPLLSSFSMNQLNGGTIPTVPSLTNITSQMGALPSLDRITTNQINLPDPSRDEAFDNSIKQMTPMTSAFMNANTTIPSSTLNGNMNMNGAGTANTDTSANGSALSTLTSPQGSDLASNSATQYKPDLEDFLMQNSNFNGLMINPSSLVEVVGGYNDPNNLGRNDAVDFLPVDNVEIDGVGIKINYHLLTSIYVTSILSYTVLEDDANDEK
row,Sequence,PBM E-score
1,AACTGAAT,-0.215
2,GTAATCAA,-0.0734
3,CTATTCGC,0.0149
4,AGTCCTGC,-0.128
5,CTGAGCAC,-0.14
6,CCCCCTGC,-0.157
7,AATCAATT,0.102
8,AGGATACC,0.0145
9,AGGCACTA,-0.11
10,AGCTAGCG,0.0898
11,ATACGTCC,0.272
12,AGTTTAGA,0.0957
13,AAACACGT,-0.132
14,AGGTGGAA,0.0549
15,CCTATAAG,-0.113
16,ACAAGTCG,-0.246
17,ACAGATCC,0.178
18,ATTGGCTA,-0.102
19,CTTTATCC,0.181
20,GTAACGTA,-0.188
21,CAAGCAAC,-0.171
22,ACCGAAGA,0.207

row,Sequence,PBM E-score
1,CTCGGCAA,0.258
2,AATTCTAG,-0.112
3,ATGATACG,-0.195
4,CTCTGGCC,-0.0719
5,GTGACCAA,-0.172
6,GACGGGAA,0.0257
7,GAAGTCCC,-0.0489
8,CATTTCTA,-0.0138
9,AGAGTTGA,-0.198
10,AGATTTCG,0.229
11,TGTACCAA,-0.187
12,ACCGGCCG,0.439
13,GAACCCAC,0.0534
14,GACGTATC,0.033
15,CAATCTCG,0.00508
16,AAGGACGA,-0.0846
17,ATGCTCCA,0.024
18,GAATTCGC,0.103
19,AAAAGAGG,-0.216
20,CGACGCCG,0.246
21,GCTTTGAC,0.0793
22,ACCGACAC,0.21

row,Sequence,PBM E-score
1,ACCGGGCC,0.373
2,AGGTATAC,-0.221
3,TAGTAGGA,-0.15
4,ACTAACAA,-0.15
5,TCCAACAA,-0.132
6,GACGTGCA,-0.0662
7,CCCTACCC,-0.107
8,AGATGACT,-0.0956
9,AATATTCG,0.0499
10,AGGCCTCG,0.00046
11,GCAAACGC,0.116
12,TCAAGTGA,-0.225
13,CTACGGGC,0.0493
14,TCTCAGAA,-0.264
15,CAATGCGC,-0.0309
16,TGGGAAAA,-0.0972
17,AAGCATTA,-0.168
18,AATATTGA,0.00924
19,TAATTGTA,-0.138
20,AGAACCTC,-0.0701
21,CTGGGGAA,-0.231
22,ATCATCAC,-0.31

row,Sequence,PBM E-score
1,CCGTAGCG,0.27
2,ACACCGTA,0.106
3,ACTTCGCA,-0.164
4,CCTCATCC,-0.13
5,CAGGTAGC,-0.0526
6,CGTCTACA,-0.242
7,AACGGATG,0.275
8,TGGCCGAA,0.261
9,GTTCGGTA,0.249
10,CTCTCATA,-0.105
11,ACTTTGTG,-0.0673
12,GTTACATA,-0.0531
13,ACCAAATA,0.0853
14,CGCCACGA,-0.0182
15,GCCTGCAC,-0.137
16,ACGCGGGA,0.14
17,AGTCGCTC,-0.115
18,CAGCATTC,-0.162
19,ACTTCTGG,-0.297
20,ATCTGAAC,-0.0804
21,CGATGCTA,0.0547
22,CATGACAC,-0.14

row,Sequence,PBM E-score
1,CAAGTCTG,-0.366
2,CCAACATA,0.0596
3,CCCTAAGC,-0.179
4,CGTGCGCA,-0.00181
5,CAGGGTGA,-0.259
6,ATCGTCCC,0.0149
7,CCCTCCAG,-0.00678
8,AACCTCGC,-0.0117
9,GACCGAGA,0.382
10,GTTGCCGA,0.241
11,AAGCGTCG,-0.0453
12,CCTACGCA,-0.132
13,GCCATCAA,-0.408
14,CGTCTTCC,0.0353
15,TAACTTGA,-0.308
16,AGCCTACT,-0.137
17,CTCCATTA,-0.0758
18,AGGCAGCA,-0.0573
19,AAGGTGAT,-0.114
20,CGTGCCAG,-0.148
21,AATATAAT,-0.0851

# — the supplement of paper PMC3334620
